# Laboratory results published in the supplement of paper PMC8728848.
# The list shows a part of the results.
# B1: CML1 (Coprinopsis cinerea) (protein)
# chain: MAIFHTGSELFIITRGPGKLTLLTWGGLNNLRSVIGAIPTENTGVTKWAVSFSHNYTRFSFIWEGQGEACYQIGNGLTRSPVGRSWSSSSTIHWGSSTVITEDVTSVVPGAVNRDKVTTAYALPDNL
# Key:
# Assay in all cases: glycan array binding signal (z-score within array); higher = stronger binding
# Conditions in all cases: glycan notation: IUPAC condensed, linker removed
# [1] = target: Neu5Ac(a2-3)Gal(b1-3)]Neu5Ac(a2-3)Gal(b1-4)]GlcNAc
# Summary of the method: (§1)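 Negative Z-scores can be read as non-binding. The Z-score is calculated within each array and then averaged across arrays of one protein sequence at different concentrations or buffers and across linkers. Arrays, 3228 in all, were curated from the Consortium for Functional Glycomics database and kept only where the protein sequence was available.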
# Neu5Ac(a2-3)Gal(b1-4)Glc = target: Neu5Ac(a2-3)Gal(b1-4)Glc
# Summary of the method: as §1
# [2] = target: Neu5Ac(a2-3)Gal(b1-4)GlcNAc
# Summary of the method: as §1
# [3] = target: Neu5Ac(a2-3)Gal(b1-4)GlcNAc(b1-2)Man
# Summary of the method: as §1
# [4] = target: Neu5Ac(a2-3)Gal(b1-4)GlcNAc(b1-2)Man(a1-3)[GlcNAc(b1-4)][Neu5Ac(a2-3)Gal(b1-4)GlcNAc(b1-2)Man(a1-6)]Man(b1-4)GlcNAc(b1-4)GlcNAc
# Summary of the method: as §1
# [5] = target: Neu5Ac(a2-3)Gal(b1-4)GlcNAc(b1-2)Man(a1-3)[Neu5Ac(a2-3)Gal(b1-4)GlcNAc(b1-2)Man(a1-6)]Man(b1-4)GlcNAc(b1-4)GlcNAc
# Summary of the method: as §1
# [6] = target: Neu5Ac(a2-3)Gal(b1-4)GlcNAc(b1-2)Man(a1-3)[Neu5Ac(a2-3)Gal(b1-4)GlcNAc(b1-2)Man(a1-6)]Man(b1-4)GlcNAc(b1-4)[Fuc(a1-6)]GlcNAc
# Summary of the method: as §1
# [7] = target: Neu5Ac(a2-3)Gal(b1-4)GlcNAc(b1-2)Man(a1-3)[Neu5Ac(a2-6)Gal(b1-4)GlcNAc(b1-2)Man(a1-6)]Man(b1-4)GlcNAc(b1-4)GlcNAc
# Summary of the method: as §1
# [8] = target: Neu5Ac(a2-3)Gal(b1-4)GlcNAc(b1-2)[Neu5Ac(a2-3)Gal(b1-4)GlcNAc(b1-4)]Man(a1-3)[GlcNAc(b1-4)][Neu5Ac(a2-3)Gal(b1-4)GlcNAc(b1-2)[Neu5Ac(a2-3)Gal(b1-4)GlcNAc(b1-6)]Man(a1-6)]Man(b1-4)GlcNAc(b1-4)GlcNAc
# Summary of the method: as §1
# [9] = target: Neu5Ac(a2-3)Gal(b1-4)GlcNAc(b1-2)[Neu5Ac(a2-3)Gal(b1-4)GlcNAc(b1-4)]Man(a1-3)[GlcNAc(b1-4)][Neu5Ac(a2-3)Gal(b1-4)GlcNAc(b1-4)Man(a1-6)]Man(b1-4)GlcNAc(b1-4)GlcNAc
# Summary of the method: as §1
# [10] = target: Neu5Ac(a2-3)Gal(b1-4)GlcNAc(b1-2)[Neu5Ac(a2-3)Gal(b1-4)GlcNAc(b1-6)]Man(a1-6)[Neu5Ac(a2-3)Gal(b1-4)GlcNAc(b1-2)Man(a1-3)][GlcNAc(b1-4)]Man(b1-4)GlcNAc(b1-4)GlcNAc
# Summary of the method: as §1
# [11] = target: Neu5Ac(a2-3)Gal(b1-4)GlcNAc(b1-3)Gal
# Summary of the method: as §1
# [12] = target: Neu5Ac(a2-3)Gal(b1-4)GlcNAc(b1-3)Gal(b1-3)GlcNAc
# Summary of the method: as §1
# [13] = target: Neu5Ac(a2-3)Gal(b1-4)GlcNAc(b1-3)Gal(b1-4)GlcNAc
# Summary of the method: as §1
# [14] = target: Neu5Ac(a2-3)Gal(b1-4)GlcNAc(b1-3)Gal(b1-4)GlcNAc(b1-2)Man(a1-3)[Neu5Ac(a2-3)Gal(b1-4)GlcNAc(b1-3)Gal(b1-4)GlcNAc(b1-2)Man(a1-6)]Man(b1-4)GlcNAc(b1-4)GlcNAc
# Summary of the method: as §1
# [15] = target: Neu5Ac(a2-3)Gal(b1-4)GlcNAc(b1-3)Gal(b1-4)GlcNAc(b1-3)Gal(b1-4)GlcNAc
# Summary of the method: as §1
# [16] = target: Neu5Ac(a2-3)Gal(b1-4)GlcNAc(b1-3)Gal(b1-4)GlcNAc(b1-3)Gal(b1-4)GlcNAc(b1-2)Man(a1-3)[Neu5Ac(a2-3)Gal(b1-4)GlcNAc(b1-3)Gal(b1-4)GlcNAc(b1-3)Gal(b1-4)GlcNAc(b1-2)Man(a1-6)]GalNAc
# Summary of the method: as §1
# [17] = target: Neu5Ac(a2-3)Gal(b1-4)GlcNAc(b1-3)Gal(b1-4)GlcNAc(b1-3)GalNAc
# Summary of the method: as §1
# [18] = target: Neu5Ac(a2-3)Gal(b1-4)GlcNAc(b1-3)Gal(b1-4)GlcNAc(b1-3)[Neu5Ac(a2-3)Gal(b1-4)GlcNAc(b1-3)Gal(b1-4)GlcNAc(b1-6)]GalNAc
# Summary of the method: as §1
# [19] = target: Neu5Ac(a2-3)Gal(b1-4)GlcNAc(b1-3)Gal(b1-4)GlcNAc(b1-6)[Gal(b1-3)]GalNAc
# Summary of the method: as §1
# [20] = target: Neu5Ac(a2-3)Gal(b1-4)GlcNAc(b1-3)Gal(b1-4)[Fuc(a1-3)]GlcNAc
# Summary of the method: as §1
# [21] = target: Neu5Ac(a2-3)Gal(b1-4)GlcNAc(b1-3)GalNAc
# Summary of the method: as §1
# [22] = target: Neu5Ac(a2-3)Gal(b1-4)GlcNAc(b1-3)[Neu5Ac(a2-3)Gal(b1-4)GlcNAc(b1-6)]GalNAc
# Summary of the method: as §1
# [23] = target: Neu5Ac(a2-3)Gal(b1-4)GlcNAc(b1-6)GalNAc
# Summary of the method: as §1
# [24] = target: Neu5Ac(a2-3)Gal(b1-4)GlcNAc(b1-6)[Gal(b1-3)]GalNAc
# Summary of the method: as §1
# [25] = target: Neu5Ac(a2-3)Gal(b1-4)GlcNAc(b1-6)[Neu5Ac(a2-3)Gal(b1-3)]GalNAc
# Summary of the method: as §1
# [26] = target: Neu5Ac(a2-3)Gal(b1-4)GlcNAc6S
# Summary of the method: as §1
# [27] = target: Neu5Ac(a2-3)Gal(b1-4)[Fuc(a1-3)]GlcNAc
# Summary of the method: as §1
# [28] = target: Neu5Ac(a2-3)Gal(b1-4)[Fuc(a1-3)]GlcNAc(b1-2)Man
# Summary of the method: as §1
# [29] = target: Neu5Ac(a2-3)Gal(b1-4)[Fuc(a1-3)]GlcNAc(b1-3)Gal
# Summary of the method: as §1
# [30] = target: Neu5Ac(a2-3)Gal(b1-4)[Fuc(a1-3)]GlcNAc(b1-3)Gal(b1-4)GlcNAc
# Summary of the method: as §1
# [31] = target: Neu5Ac(a2-3)Gal(b1-4)[Fuc(a1-3)]GlcNAc(b1-3)Gal(b1-4)[Fuc(a1-3)]GlcNAc(b1-3)Gal(b1-4)[Fuc(a1-3)]GlcNAc
# Summary of the method: as §1
# [32] = target: Neu5Ac(a2-3)Gal(b1-4)[Fuc(a1-3)]GlcNAc(b1-3)GalNAc
# Summary of the method: as §1
# [33] = target: Neu5Ac(a2-3)Gal(b1-4)[Fuc(a1-3)]GlcNAc(b1-6)[Gal(b1-3)]GalNAc
# Summary of the method: as §1
# [34] = target: Neu5Ac(a2-3)Gal(b1-4)[Fuc(a1-3)]GlcNAc(b1-6)[Neu5Ac(a2-3)Gal(b1-3)]GalNAc
# Summary of the method: as §1
# [35] = target: Neu5Ac(a2-3)Gal(b1-4)[Fuc(a1-3)]GlcNAc6S
# Summary of the method: as §1
# [36] = target: Neu5Ac(a2-3)Gal6S(b1-4)GlcNAc
# Summary of the method: as §1
# [37] = target: Neu5Ac(a2-3)Gal6S(b1-4)[Fuc(a1-3)]GlcNAc
# Summary of the method: as §1
binder,measurement,setting,value
B1,glycan array binding signal (z-score),[1],-0.317
same,glycan array binding signal (z-score),Neu5Ac(a2-3)Gal(b1-4)Glc,-0.34
same,glycan array binding signal (z-score),[2],-0.328
same,glycan array binding signal (z-score),[3],-0.333
same,glycan array binding signal (z-score),[4],-0.337
same,glycan array binding signal (z-score),[5],-0.334
same,glycan array binding signal (z-score),[6],-0.336
same,glycan array binding signal (z-score),[7],-0.319
same,glycan array binding signal (z-score),[8],-0.359
same,glycan array binding signal (z-score),[9],-0.332
same,glycan array binding signal (z-score),[10],-0.332
same,glycan array binding signal (z-score),[11],-0.3
same,glycan array binding signal (z-score),[12],-0.334
same,glycan array binding signal (z-score),[13],-0.355
same,glycan array binding signal (z-score),[14],-0.331
same,glycan array binding signal (z-score),[15],-0.349
same,glycan array binding signal (z-score),[16],-0.319
same,glycan array binding signal (z-score),[17],-0.342
same,glycan array binding signal (z-score),[18],-0.28
same,glycan array binding signal (z-score),[19],-0.324
same,glycan array binding signal (z-score),[20],-0.341
same,glycan array binding signal (z-score),[21],-0.334
same,glycan array binding signal (z-score),[22],-0.315
same,glycan array binding signal (z-score),[23],-0.368
same,glycan array binding signal (z-score),[24],-0.313
same,glycan array binding signal (z-score),[25],-0.364
same,glycan array binding signal (z-score),[26],-0.324
same,glycan array binding signal (z-score),[27],2.61
same,glycan array binding signal (z-score),[28],3.13
same,glycan array binding signal (z-score),[29],4.46
same,glycan array binding signal (z-score),[30],2.41
same,glycan array binding signal (z-score),[31],1.8
same,glycan array binding signal (z-score),[32],-0.149
same,glycan array binding signal (z-score),[33],-0.178
same,glycan array binding signal (z-score),[34],-0.119
same,glycan array binding signal (z-score),[35],4.04
same,glycan array binding signal (z-score),[36],6.01
same,glycan array binding signal (z-score),[37],3.49
